The values that follow come from publication PMC6212790.

This is one part of the list. At the low end of the ranking the order means little.

The target in this assay is T1, GST-Rok (full length) (UniProt O34857).
T1 sequence: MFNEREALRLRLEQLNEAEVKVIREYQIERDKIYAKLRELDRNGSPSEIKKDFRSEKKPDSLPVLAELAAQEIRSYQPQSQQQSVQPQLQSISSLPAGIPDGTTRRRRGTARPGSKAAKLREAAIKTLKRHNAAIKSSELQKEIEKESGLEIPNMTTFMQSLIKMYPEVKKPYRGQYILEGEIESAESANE
The assay can be described thus: protein binding microarray.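 Note: rank score from −0.5 (least bound) to 0.5 (best bound).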 As to conditions: Rok is a gene silencer of Bacillus subtilis; high values mean tight binding; most listed sequences are background and not binding sites; double strand, one strand shown.
Consider ATAGAACA, for which the binding signal was found to be 0.236 E-score. The value for CATTCATA was 0.212 E-score; that for AACCTCGG was -0.0369 E-score. For TCTACAGA the value was 0.21 E-score; for CATTATGC, 0.143 E-score; for ATGAGACG, -0.208 E-score. The value for CTCGCGGA was -0.123 E-score. For the sequence AGCCTATG, the binding signal was -0.124 E-score.

Consider GTCAGGAC, for which the binding signal is -0.305 E-score. The sequence ACACCCAT registered a binding signal of -0.11 E-score. For CAAGTGCA, the binding signal was -0.115 E-score. For AAAACAGG the value was 0.172 E-score. The value for ACCCCTAT was -0.221 E-score. For ACATTCTC the value was 0.0677 E-score; for TAGCGGGA, -0.124 E-score; for ACGACAAG, 0.00569 E-score.

On to CTCCGCAG, for which the binding signal was -0.305 E-score. For the sequence AGGCTAGA, the binding signal is -0.0793 E-score.

Sequence AGGCGACG yielded a binding signal of -0.0914 E-score. For AGCGTCTC the value was -0.128 E-score; for TGGGCACA, 0.0658 E-score; for CCCCAGTA, -0.194 E-score. The sequence CGTCTGCA had a binding signal of -0.0854 E-score. For AGGACCGC the value was -0.388 E-score; for CGTTCTAG, 0.121 E-score; for ATGTCAAA, 0.108 E-score.

For GCGTGGCA, the binding signal was -0.281 E-score. The value for ATGCCCGG was -0.304 E-score; that for ATAGGAAG was 0.0173 E-score.

CTGGGGCA registered a binding signal of -0.328 E-score. With AACCAGGA, the binding signal is -0.134 E-score. With CGTGGTAG, the binding signal worked out at 0.295 E-score. In turn, GTGTATGA had a binding signal of 0.155 E-score.

Turning to TTGGGAAA, the binding signal is -0.011 E-score. Regarding CAATTACC, the binding signal was determined as 0.133 E-score. As for TATAAGGA, the binding signal was 0.062 E-score.

Regarding CCAGTTAC, the binding signal was 0.173 E-score.

The sequence AGGTGATA gave a binding signal of 0.315 E-score. For AAGACTCA the value was -0.0739 E-score; for GCCGACAA, -0.192 E-score; for ACCAGAAC, 0.0361 E-score. For CGATCATA the value was 0.207 E-score; for ACTCTTCG, 0.0618 E-score.

The sequence GAGGAGGC came in with a binding signal of -0.352 E-score. CGGCTCTC registered a binding signal of -0.283 E-score.

Take ATCCCAAT: the binding signal is -0.155 E-score.

As for ACACTGCT, the binding signal was 0.13 E-score.

As for ACTAGGCC, the binding signal was -0.213 E-score.

For ATCGAGGC, the binding signal is -0.281 E-score. As for CGTACATC, the binding signal turned out to be 0.239 E-score. Consider TACCGCAA, for which the binding signal was determined as 0.185 E-score. On to ACACACAC, for which the binding signal is 0.127 E-score. In turn, GCTGGGCC had a binding signal of -0.216 E-score. For GCGGGGCC the value was -0.412 E-score. In the case of GGGCAACC, the binding signal was -0.342 E-score.

Take CTGACAAG: the binding signal is -0.117 E-score.

Take AAAAGACT: the binding signal was -0.0617 E-score. In the case of CAGGCCCC, the binding signal is -0.398 E-score.

The sequence ACAGCGCC registered a binding signal of -0.324 E-score. For AGTTGTGA the value was -0.0272 E-score. Turning to AGCATTGA, the binding signal is 0.0332 E-score. ACGAGAAA registered a binding signal of -0.0804 E-score. For CAGCCACG the value was -0.111 E-score; for GCTGCAAA, -0.0275 E-score. The value for AAATGATG was 0.146 E-score. For ATAATTAC the value was 0.385 E-score.

Take CAGCATCA: the binding signal turned out to be 0.0323 E-score. As to CAACTCCC, the binding signal was -0.125 E-score. The value for CGCCTACG was -0.21 E-score.

As to CTGTGTTC, the binding signal is -0.0402 E-score.

For AATCCTCT, the binding signal is -0.0111 E-score.

Turning to ACTGCAGA, the binding signal was determined as 0.0691 E-score. On to ACCAAATC, for which the binding signal was found to be 0.131 E-score. Sequence AAATACAG yielded a binding signal of 0.264 E-score.

Sequence AGTGGCCA returned a binding signal of -0.0827 E-score.

CCAGTAAC showed a binding signal of -0.103 E-score. The value for CGGACTTC was -0.0622 E-score. The sequence ATAAGGAA yielded a binding signal of 0.0169 E-score. For CTCCACTA the value was 0.0959 E-score; for ATGTACAC, 0.191 E-score. For AGGCTTCA the value was -0.335 E-score; for AGGGCCGC, -0.341 E-score; for CTGAGAAA, -0.00517 E-score.

In turn, GGAGCCTA had a binding signal of -0.287 E-score. On to AAAATCTT, for which the binding signal is -0.00511 E-score. The value for GTTTTTTA was 0.0779 E-score; that for CGGTAGTC was 0.173 E-score.

As to CTGGTTCA, the binding signal was -0.105 E-score. For ATCACGAG the value was -0.0282 E-score; for ACGATTCG, -0.0262 E-score; for ATCAAGAA, -0.086 E-score.

ACGGCAGA yielded a binding signal of -0.141 E-score.

As to CTCGGTAC, the binding signal was found to be 0.171 E-score. The value for CCAAAAGC was -0.17 E-score; that for TACACGAA was 0.196 E-score; that for AAAGCAAC was 0.0568 E-score.

The sequence CCACAATA yielded a binding signal of 0.276 E-score. On to GTGACAAA, for which the binding signal is -0.109 E-score. Regarding GAAGAACA, the binding signal is -0.0616 E-score. The value for AGAAGCAA was 0.19 E-score; that for AGAACCCC was -0.314 E-score; that for AGGCTTAT was -0.00888 E-score.

The sequence CTCCTATC gave a binding signal of 0.000123 E-score. For GAGAGAGA the value was -0.124 E-score. In turn, AATCGATA came in with a binding signal of 0.281 E-score.

As to ACTTTACC, the binding signal was determined as 0.196 E-score.

As to AGTCGGAT, the binding signal was -0.187 E-score.

CGTTGTTA returned a binding signal of 0.122 E-score. The sequence CGCTCGAG displayed a binding signal of -0.144 E-score. For the sequence GCAGGACC, the binding signal is -0.352 E-score.
